{"source": "paper PMC4336329", "about": "(PLoS ONE, 2015)", "note": "Among all 310,000 compounds or so, about 2,200 (0.71%) showed an effect of 50% or more. Effects have a minus sign here. Some of the results follow."}
{"target": "human ether-à-go-go-related gene (hERG) potassium channel (human, UniProt Q12809)", "sequence (Q12809 whole entry, looked up)": "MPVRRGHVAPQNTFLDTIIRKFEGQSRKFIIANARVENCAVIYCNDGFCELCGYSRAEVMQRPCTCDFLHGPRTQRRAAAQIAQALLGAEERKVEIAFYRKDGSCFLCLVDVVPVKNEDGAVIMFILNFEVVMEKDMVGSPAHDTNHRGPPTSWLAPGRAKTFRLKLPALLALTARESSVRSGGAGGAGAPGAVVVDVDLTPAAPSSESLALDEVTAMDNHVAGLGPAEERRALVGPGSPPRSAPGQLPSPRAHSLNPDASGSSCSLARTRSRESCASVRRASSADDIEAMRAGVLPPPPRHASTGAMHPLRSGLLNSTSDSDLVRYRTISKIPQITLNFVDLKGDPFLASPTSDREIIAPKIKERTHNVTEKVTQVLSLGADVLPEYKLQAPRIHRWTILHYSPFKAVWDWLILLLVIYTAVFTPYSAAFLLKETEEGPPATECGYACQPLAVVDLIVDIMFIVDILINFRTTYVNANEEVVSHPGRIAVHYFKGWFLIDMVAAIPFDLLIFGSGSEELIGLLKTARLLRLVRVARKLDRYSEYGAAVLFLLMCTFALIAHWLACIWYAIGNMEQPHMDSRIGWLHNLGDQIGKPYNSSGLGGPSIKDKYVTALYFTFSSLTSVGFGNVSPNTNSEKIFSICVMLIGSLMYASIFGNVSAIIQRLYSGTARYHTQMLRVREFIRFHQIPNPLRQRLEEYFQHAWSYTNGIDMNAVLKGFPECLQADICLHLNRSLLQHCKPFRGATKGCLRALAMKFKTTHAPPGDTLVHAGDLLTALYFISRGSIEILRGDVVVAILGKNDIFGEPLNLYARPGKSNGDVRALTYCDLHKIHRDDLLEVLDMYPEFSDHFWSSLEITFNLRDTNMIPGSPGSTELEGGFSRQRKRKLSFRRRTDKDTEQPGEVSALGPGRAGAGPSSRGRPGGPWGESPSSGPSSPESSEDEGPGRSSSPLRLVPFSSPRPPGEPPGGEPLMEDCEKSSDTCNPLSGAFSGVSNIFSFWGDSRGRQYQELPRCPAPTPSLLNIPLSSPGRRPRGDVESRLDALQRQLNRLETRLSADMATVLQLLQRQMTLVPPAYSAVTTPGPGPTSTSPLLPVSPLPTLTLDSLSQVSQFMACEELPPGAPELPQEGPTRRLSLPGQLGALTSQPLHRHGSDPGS", "assay": "primary screen, population patch clamp on CHO cells stably expressing hERG", "units": {"hERG current change (%, negative = inhibition) at 1uM": "%"}}
{"smiles": "COCC(=O)Nc1ccc(N2CCCC2)c(S(=O)(=O)Nc2ccccc2OC)c1", "hERG current change (%, negative = inhibition) at 1uM": 4.22}
{"smiles": "CCn1c(=NC(=O)c2cccc(N3C(=O)CCC3=O)c2)sc2c(OC)ccc(OC)c21", "hERG current change (%, negative = inhibition) at 1uM": 11.5}
{"smiles": "Cl.Cn1c(=N)n(CC(O)c2ccccc2)c2ccccc21", "note": "(stereo not drawn)", "hERG current change (%, negative = inhibition) at 1uM": -11.5}
{"smiles": "Cc1cccc(N2CCN(S(=O)(=O)c3c(C)nc4scc(C)n4c3=O)CC2)c1C", "hERG current change (%, negative = inhibition) at 1uM": 9.59}
{"smiles": "CCn1nnnc1Oc1ccc(Cl)cc1", "hERG current change (%, negative = inhibition) at 1uM": 7.27}
{"smiles": "Cc1ccc2c(CSc3nnc(C4CC4)n3N)cc(=O)oc2c1C", "hERG current change (%, negative = inhibition) at 1uM": 6.52}
{"smiles": "CCOc1ccc(OCCC(=O)N2CCc3cc(OC)c(OC)cc3C2)cc1", "hERG current change (%, negative = inhibition) at 1uM": 1.01}
{"smiles": "CC(C)(C)NC(=O)CSc1nc2[nH]ncc2c(=O)[nH]1", "hERG current change (%, negative = inhibition) at 1uM": 12.1}
{"smiles": "Cc1ccc(-c2nn(-c3ccccc3)cc2C(=O)NCC(c2cccs2)N2CCOCC2)cc1", "note": "(stereo not drawn)", "hERG current change (%, negative = inhibition) at 1uM": 11}
{"smiles": "O=C(/C=C/c1cccc([N+](=O)[O-])c1)N1CCN(c2ccc(F)cc2)CC1", "hERG current change (%, negative = inhibition) at 1uM": -20}
{"smiles": "CCCCn1c(N)c(N(CC)C(=O)C2=COCCO2)c(=O)[nH]c1=O", "hERG current change (%, negative = inhibition) at 1uM": 3.9}
{"smiles": "COc1cc(C(=O)Nc2ccc(C)c(S(=O)(=O)N(C)C)c2)ccc1OCC(=O)N1CCOCC1", "hERG current change (%, negative = inhibition) at 1uM": 11.8}
{"smiles": "Cc1ccc(C(=O)Nc2ncc(C)s2)o1", "hERG current change (%, negative = inhibition) at 1uM": 3.8}
{"smiles": "CCOc1ncccc1C(=O)NNC(=O)c1cccc(S(=O)(=O)Nc2ccc(OC)cc2)c1", "hERG current change (%, negative = inhibition) at 1uM": 10.9}
{"smiles": "Cc1cc(C)cc(NC(=S)N2CCN(Cc3ccccc3)CC2)c1", "hERG current change (%, negative = inhibition) at 1uM": 12.2}
{"smiles": "C=CCN1C(=O)/C(=C2/Sc3ccc(OC)cc3N2C)SC1=Nc1ccccc1", "hERG current change (%, negative = inhibition) at 1uM": 4.59}
{"smiles": "COc1cc(NC(=O)CSc2ncnc3sc4c(c23)CCC(C)C4)c(C(=O)O)cc1OC", "note": "(stereo not drawn)", "hERG current change (%, negative = inhibition) at 1uM": 17.6}
{"smiles": "FC(F)(F)c1cc(C(F)(F)F)n2nc(-c3sccc3-n3cccc3)cc2n1", "hERG current change (%, negative = inhibition) at 1uM": 14.3}
{"smiles": "O=C(NC(=S)Nc1ccc(Cc2ccncc2)cc1)c1ccc(F)cc1", "hERG current change (%, negative = inhibition) at 1uM": 13.8}
{"smiles": "COC(=O)CC1C(=O)NCCN1C(=O)NC1CCCCC1", "note": "(stereo not drawn)", "hERG current change (%, negative = inhibition) at 1uM": 7.21}
{"smiles": "Cc1cc(C)c(NC(=O)COC(=O)/C=C/c2cccs2)c(C)c1", "hERG current change (%, negative = inhibition) at 1uM": 9.07}
{"smiles": "CCOc1ccc(NC(=O)CN(C)C(=O)C2CCN(c3ncnc4sc(C)c(C)c34)CC2)cc1OCC", "hERG current change (%, negative = inhibition) at 1uM": -6.14}
{"smiles": "CC(=O)NC(Cc1ccc(C(C)C)cc1)C(=O)NC1CCN(c2nc(C)cc(C)n2)CC1", "note": "(stereo not drawn)", "hERG current change (%, negative = inhibition) at 1uM": 9.44}
{"smiles": "Br.CCCCC1CC(CSC(=N)N)OC1=O", "note": "(stereo not drawn)", "hERG current change (%, negative = inhibition) at 1uM": 9.2}
{"smiles": "Cc1ccc(OCC(=O)N2N=C(c3cccnc3)CC2(O)C(F)(F)F)cc1C", "note": "(stereo not drawn)", "hERG current change (%, negative = inhibition) at 1uM": 12.8}
{"smiles": "CN(Cc1ccco1)c1ncnc2ccc(-c3ccc4c(c3)OCO4)cc12", "hERG current change (%, negative = inhibition) at 1uM": 17.6}
{"smiles": "COc1cc(/C=N\\NC(=O)c2sc(N)nc2C)cc(OC)c1OC", "hERG current change (%, negative = inhibition) at 1uM": 6.17}
{"smiles": "Cc1c(C#N)c(NC(=O)c2ccccc2)n(Cc2ccccc2)c1C", "hERG current change (%, negative = inhibition) at 1uM": -1.54}
{"smiles": "CCCN1CCN(C(=O)c2oc3c(Cl)cccc3c2C)CC1", "hERG current change (%, negative = inhibition) at 1uM": -0.0965}
{"smiles": "Cc1nc2cc(C(=O)OCC(=O)Nc3ccc(C#N)cc3)ccc2n1-c1ccccc1", "hERG current change (%, negative = inhibition) at 1uM": 9.44}
{"smiles": "Oc1ccccc1C1OCC2(CO1)COC(c1ccccc1O)OC2", "note": "(stereo not drawn)", "hERG current change (%, negative = inhibition) at 1uM": -0.729}
{"smiles": "S=C(Nc1cccnc1)NC1CCCCCCC1", "hERG current change (%, negative = inhibition) at 1uM": 4.29}
{"smiles": "O=C(Nc1ccccc1)Nc1ccc(Br)c(Cl)c1", "hERG current change (%, negative = inhibition) at 1uM": 9.84}
{"smiles": "COc1cc(/C=C/c2nc3ccc([N+](=O)[O-])cc3s2)ccc1OCC(=O)O", "hERG current change (%, negative = inhibition) at 1uM": 11.4}
{"smiles": "COc1ccc([N+](=O)[O-])cc1NC(=S)NC(NC(C)=O)C(Cl)(Cl)Cl", "note": "(stereo not drawn)", "hERG current change (%, negative = inhibition) at 1uM": 10.4}
{"smiles": "CC(NC(=O)C1C2C=CC(C2)C1C(=O)O)c1ccccc1", "note": "(stereo not drawn)", "hERG current change (%, negative = inhibition) at 1uM": 3.81}
{"smiles": "COc1ccc(CNc2nc(NCc3ccc(OC)c(OC)c3)n(C(=O)c3cccs3)n2)cc1OC", "hERG current change (%, negative = inhibition) at 1uM": 13.1}
{"smiles": "O=C(CSc1nnc(-c2ccc(F)cc2)o1)N1CCCC1", "hERG current change (%, negative = inhibition) at 1uM": 0.128}
{"smiles": "CC1(C)C2CC=C(CN3CCOCC3)C1C2", "note": "(stereo not drawn)", "hERG current change (%, negative = inhibition) at 1uM": 9.52}
{"smiles": "COc1ccc(C2CC(c3cc(Br)ccc3F)n3nnnc3N2)cc1", "note": "(stereo not drawn)", "hERG current change (%, negative = inhibition) at 1uM": 2.87}
{"smiles": "Cc1ccc(NC(=O)Nc2cnccn2)cc1C", "hERG current change (%, negative = inhibition) at 1uM": 12.3}
{"smiles": "CN1CCN(NC(=O)c2ccc(Br)s2)CC1", "hERG current change (%, negative = inhibition) at 1uM": 13.5}
{"smiles": "COc1cc(OC)nc(Oc2ccc(NC(C)=O)cc2)n1", "hERG current change (%, negative = inhibition) at 1uM": 7.98}
{"smiles": "CCOc1ccc2nc(Cl)c(C3CC(c4ccccc4)=NN3C(=O)c3cccs3)cc2c1", "note": "(stereo not drawn)", "hERG current change (%, negative = inhibition) at 1uM": 2.49}
{"smiles": "Cc1ccc(N(C(=O)c2ccn[nH]2)C(C(=O)NC2CCCC2)c2cccs2)cc1", "note": "(stereo not drawn)", "hERG current change (%, negative = inhibition) at 1uM": 15.4}
{"smiles": "COc1cc(/C=N/Nc2ccc(C(=O)O)cc2)ccc1O", "hERG current change (%, negative = inhibition) at 1uM": 13.7}
{"smiles": "O=S(=O)(NCCOc1ccc(F)cc1)c1ccc2c(c1)OCCO2", "hERG current change (%, negative = inhibition) at 1uM": -2.47}
{"smiles": "CCCc1ccc(C(C)NC(=S)NC2CCCCC2)cc1", "note": "(stereo not drawn)", "hERG current change (%, negative = inhibition) at 1uM": 14.3}
{"smiles": "CCC(CO)Oc1cc(NCc2ccc(OC)cc2)c2ncn(C(C)C)c2c1", "note": "(stereo not drawn)", "hERG current change (%, negative = inhibition) at 1uM": 9.04}
{"smiles": "O=C(Nn1c(C2CCCCC2)nc2ccccc2c1=O)c1cc(Cl)ccc1[N+](=O)[O-]", "hERG current change (%, negative = inhibition) at 1uM": 6.53}
{"smiles": "COc1cc(NC(=O)c2cc(C)on2)cc(OC)c1OC", "hERG current change (%, negative = inhibition) at 1uM": 0.949}
{"smiles": "CN(CC(=O)Nc1c(Cl)cccc1Cl)C(=O)C1CSC2(C)CCC(=O)N12", "note": "(stereo not drawn)", "hERG current change (%, negative = inhibition) at 1uM": 2.85}
{"smiles": "O=C(NC1CCCCC1)NC1CCN(S(=O)(=O)c2ccc3c(c2)OCCO3)CC1", "hERG current change (%, negative = inhibition) at 1uM": 9.08}
{"smiles": "CCCCOC(=O)c1ccc(OC(=O)N2CCOCC2)cc1", "hERG current change (%, negative = inhibition) at 1uM": 7.32}
{"smiles": "N/C(=N\\OC(=O)CCCOc1ccccc1)c1cccc(Br)c1", "hERG current change (%, negative = inhibition) at 1uM": 23}
{"smiles": "CCOC(=O)c1c(S(=O)(=O)NCC(=O)Nc2ccccc2OC)c(C)n(C)c1C", "hERG current change (%, negative = inhibition) at 1uM": 9.9}
{"smiles": "Cc1c(CNC(=O)c2c([N+](=O)[O-])cnn2C)cnn1C", "hERG current change (%, negative = inhibition) at 1uM": 6.57}
